Measurements as given in a collection of fitness landscapes (doi:10.1016/j.celrep.2020.107928).
Whole data set: some 81,000 sequences, median “one-hybrid fitness for binding NBS DNA” near -0.1, cut for the highest 2% near 0.36. The list shows a part of the results.

B1: Caulobacter ParB omega fusion; a variant is named by its letters at X, in order, B8GW30 (parent)
chain: MESVVVGEPGMSEGRRGLGRGLSALLGEVDAAPAQAPGEQLGGSREAPIEILQRNPDQPRRTFREEDLEDLSNSIREKGVLQPILVRPSPDTAGEYQIVAGERAWRAAQRAGLKTVPIMVRELDDLAVLEIGIIENVQRADLNVLEEALSYKVLMEKFERTQENIAQTIGKSXSHVANXMRLLXLPDEVQSYLVSGELTAXHARAIAAAADPVALAKQIIEGGLSVRETEALARKAPNLSAGKSKGGRPPRVKDTDTQALESDLSSVLGLDVSIDHRGSTGTLTITYATLEQLDDLCNRLTRGI

Variants of: B1
Test: one-hybrid fitness for binding NBS DNA (the Noc-binding site; scaled: cognate 1, non-cognate 0); higher = stronger binding
Conditions: with NBS DNA site
Outline: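 The reporter was HIS3, with the binding site 19 bp from the promoter, in E. coli USO used for bacterial one-hybrid selection of Caulobacter ParB libraries with four specificity codons randomised. Growth was on M9 lacking histidine, with 0.1 mM IPTG and 5 mM 3-AT, for 48 hours at 37°C. Illumina sequencing covered plasmids before and after selection; three replicate libraries were pooled and variants with under 10 reads dropped. A fitness score is the log change in variant-to-wild-type read ratio, rescaled to the cognate and non-cognate references.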

one-hybrid fitness for binding NBS DNA, 0.231:
RFSS

one-hybrid fitness for binding NBS DNA, ≤ 0.2:
NPKE
YWIC
MQQW
PCLY
FSMP
SFSC
PTKL
FAIR
PTWC
TAVC
RIHV
HQRY
AHDS
RIQV
EIVR
LYEW
QYIC
DQIS
DPKN
TPAH
PLYV
DISM
PHKC
RAPI
KLRH
PQAS
PSCR
NESG
RHRP
RPKW
HCMR
GPST
REMW
HGMA
ETRG
NNAN
FLGY
PCIG
QQVN
NKPM
HHQC
RQSN
SPAN
LCTI
MTFM
QHTH
QAWG
GSFL
VQDY
VKTV
SCAV
ATIL
VMLG
MGSR
PLQD
RNGY
WEER
TRDI
MFLC
PFMV
ISCD
ARKP
CQFR
DENV
GLNT
EFFR
TFDT
WSPC
LHWI
TLYV
WYDG
KMAW
NGLT
WNTH

one-hybrid fitness for binding NBS DNA, 0.476:
RQHR
